Data reported in PubChem BioAssay (NCATS).
Values joined by “and” are separate entries in the source; they are usually repeats but may differ in a detail not shown here. Equal values may be shown once. Inconclusive results, whose numbers are uncertain, are shown with a selection of clear calls. Where the call is inconclusive, the potency comes from a doubtful curve fit. Active and inactive are the calls of the source. Unless noted, calls follow the shape of the dose curve; as a rule, active = well fitted inhibition curve with a large enough effect in the repeat runs; inconclusive = weak or mixed curves; inactive = no such curve, though single readings can be large or run the other way.

Biological target: Cytochrome P450 2C9 (Homo sapiens) (UniProt P11712)
Assay: Cytochrome P450 family 2 subfamily C member 9 (CYP2C9) small molecule antagonists: luciferase biochemical (cell-free) qHTS assay (AID 1645842); also: nearly all actives have a fitted effect of over 55% in size
Conditions: P450-Glo CYP2C9 enzyme assay, luciferin luminescence; series mostly up to 57.4 µM
In short: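 Luminescence, after 20 min with luciferin detection reagent, reflected CYP2C9 turnover during a 1 h NADPH-driven reaction at 37C. Enzyme-substrate mix contained 0.4% bovine serum albumin and was preincubated with compound 10 min at room temperature.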
% is scaled to controls: 0 for no effect and ±100 for the full control effect; potency is read from the fitted curve at half-maximal effect; tags tell the direction and shape of the fitted curve.

Chain of UniProt P11712 (P11712 whole entry, looked up): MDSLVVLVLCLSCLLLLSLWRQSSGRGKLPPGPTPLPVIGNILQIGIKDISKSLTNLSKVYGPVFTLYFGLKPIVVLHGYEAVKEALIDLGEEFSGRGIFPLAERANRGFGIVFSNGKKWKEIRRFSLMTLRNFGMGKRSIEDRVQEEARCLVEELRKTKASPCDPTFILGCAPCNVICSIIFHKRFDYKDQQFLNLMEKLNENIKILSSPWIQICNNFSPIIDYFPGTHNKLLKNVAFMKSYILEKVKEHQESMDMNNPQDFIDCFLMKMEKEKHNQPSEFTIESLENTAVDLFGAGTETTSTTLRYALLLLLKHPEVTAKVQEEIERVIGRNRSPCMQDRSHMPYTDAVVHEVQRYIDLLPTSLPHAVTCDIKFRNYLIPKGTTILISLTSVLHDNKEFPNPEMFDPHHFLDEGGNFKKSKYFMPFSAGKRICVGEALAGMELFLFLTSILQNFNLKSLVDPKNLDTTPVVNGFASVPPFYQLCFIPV

Row | SMILES | Potency
1 | C#C[C@]1(O)CC[C@H]2[C@@H]3CCC4=CC(=O)CC[C@]4(C)[C@H]3CC[C@@]21C | inactive
2 | O=c1[nH]c2cc(Cl)ccc2n1C1CCNCC1 | inactive
3 | N[C@@H](Cc1ccc(N(CCCl)CCCl)cc1)C(=O)O | inconclusive: 38.9 µM [inhibitor, single point]
4 | C[C@]12Cc3nonc3C[C@@H]1CC[C@@H]1[C@@H]2CC[C@@]2(C)[C@H]1CC[C@]2(C)O | inconclusive: 30.9 µM [inhibitor, single point]
5 | CCCN(CCC)[C@@H]1CCc2ccc3[nH]c(C#N)cc3c2C1 | inconclusive: 9.52 µM [inhibitor, partial curve]
6 | CN1C2CCC1CC(OC(=O)N1Cc3ccccc3NC1=O)C2 (stereo unspecified) | inactive
7 | C[C@H]1CN(CC[C@H](O)C2CCCCC2)CC[C@@]1(C)c1cccc(O)c1 | inconclusive: 21.3 µM [inhibitor, single point]
8 | CCCN(CCC)CCc1ccc(OC)c(OCCc2ccccc2)c1 | inconclusive: 26.8 µM [inhibitor, single point]
9 | CC(Cc1ccccc1)NCc1ccccc1Cl (stereo unspecified) | inconclusive: 27.5 µM [inhibitor, single point]
10 | Cc1ccc(S(=O)(=O)N[C@@H](CCCCN)C(=O)CCl)cc1 | inconclusive: 16.9 µM [inhibitor, partial curve]
11 | CC[C@@H](CO)NC(=O)[C@@H]1C=C2c3cccc4c3c(cn4C)C[C@H]2N(C)C1 | inconclusive: 30.9 µM [inhibitor, single point]
12 | CCCCN1[C@@H]2CC[C@H]1CC(OC(c1ccc(F)cc1)c1ccc(F)cc1)C2 (stereo partly specified) | inconclusive: 26.8 µM [inhibitor, single point]
13 | NC(=O)[C@@H](CC1CC1)[C@@H](CCC(F)(F)F)C(=O)N[C@H]1N=C(c2ccccc2)c2cccc(F)c2NC1=O | inconclusive: 26.8 µM [inhibitor, single point]
14 | C[C@@H](CN1CCC2(CC1)C(=O)NCN2c1cccc(F)c1)NC(=O)c1ccc(Br)cc1 | active: 9.52 µM
15 | Cc1c(Cl)c(OCC(=O)N2CCN(C)CC2)nc2sc(C(=O)NC3CC3)c(N)c12 | inconclusive: 21.3 µM [inhibitor, single point]
16 | CCC(C)(C)c1ccc(O)cc1 | inconclusive: 21.9 µM [inhibitor, partial curve, poor fit]
17 | COc1ccc2c(C(=O)c3ccc(Cl)cc3)c(C)n(CC(=O)O)c2c1 | inconclusive: 38.9 µM [inhibitor, single point]
18 | CCc1cc2c(s1)-n1c(C)nnc1CN=C2c1ccccc1Cl | inactive
19 | COC1CC(=C(c2cccs2)c2cccs2)C[N+](C)(C)C1 (stereo unspecified) | inactive
20 | C[C@@H](CN1CCC(n2c(=O)[nH]c3cc(Br)ccc32)CC1)NC(=O)[C@@H]1C[C@H]1c1ccccc1 | inconclusive: 12 µM [inhibitor, partial curve]
21 | C[C@]12CCC(=O)C=C1CC[C@@H]1[C@H]3CC[C@](C)(O)[C@@]3(C)CC[C@@H]12 | active: 42.6 µM
22 | CC(C)=CCOc1c2occc2cc2ccc(=O)oc12 | active: 0.347 µM
23 | CCOC(=O)c1ncn2c1CN(C)C(=O)c1c(I)cccc1-2 | inactive
24 | CN1C(=O)CCS(=O)(=O)C1c1ccc(Cl)cc1 (stereo unspecified) | inactive
25 | CN(C(=O)Cc1ccccc1)C(CN1CCCC1)c1ccccc1 (stereo unspecified) | inconclusive: 37.9 µM [inhibitor, single point]
26 | O=C1c2ccccc2C(=O)C1C(=O)C(c1ccccc1)c1ccccc1 | active: 0.384 µM
27 | Cc1cccc(NC(=O)NC2N=C(c3ccccc3)c3ccccc3N(CC(=O)c3ccccc3C)C2=O)c1 (stereo unspecified) | inconclusive: 3.01 µM [inhibitor, full curve]
28 | CC(C)[N+](C)(CCC(C(N)=O)(c1ccccc1)c1ccccc1)C(C)C | inconclusive: 34.7 µM [inhibitor, single point]

Tested on: not listed separately
Assay: Cytotoxicity counterscreen for inhibitors of SARS-CoV-2 cell entry (AID 1645845; calls by dose curve; also: nearly all actives have a fitted effect of over 50% in size)
Conditions: cell viability (SARS-CoV-2 entry assay cells); activity change, negative = cytotoxicity: at 57.1 µM (top of the series) unless noted; series mostly up to 57.1 µM
In short: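 HEK293-ACE2 cells (Expi293F stably expressing human ACE2) seeded overnight, then compound for 1 h plus 48 h at 37C. Viability as ATP content by luminescence; normalized to wells with cells and media-only wells.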

Row | SMILES | Potency | activity change, negative = cytotoxicity
29 | CC(C)(C(=O)NCC(F)(F)C(F)(F)F)C(=O)N[C@@H]1C(=O)Nc2ccccc2-c2ccccc21 | inactive | 
30 | N[C@@H](Cc1ccc(N(CCCl)CCCl)cc1)C(=O)O | inactive and inconclusive: 35.5 µM [cytotoxic, single point] | 
31 | C[C@]12Cc3nonc3C[C@@H]1CC[C@@H]1[C@@H]2CC[C@@]2(C)[C@H]1CC[C@]2(C)O | inconclusive: 20 µM [cytotoxic, single point] | 
32 | CNC(=O)c1ccc(C)c(-n2c(C)cc(OCc3ccc(F)cc3F)c(Br)c2=O)c1 |  | inconclusive: -53.8%
33 | C=CC(=O)Nc1cc2c(Nc3ccc(F)c(Cl)c3)ncnc2cc1OCCCN1CCOCC1 | active: 35.5 µM | 
34 | Nc1nc2[nH]cc(CCc3ccc(C(=O)N[C@@H](CCC(=O)O)C(=O)O)cc3)c2c(=O)[nH]1 | inactive | 
35 | COc1ccc(CCN(C)CCCOc2ccc(S(=O)(=O)c3[nH]c4ccccc4c3C(C)C)cc2)cc1OC | inconclusive: 39.8 µM [cytotoxic, single point] | 
36 | CN(C(=O)c1ccc(F)cc1C(F)(F)F)C1CCN(c2nnc(-c3ccnn3C)c3ccccc23)CC1 | inconclusive: 39.8 µM [cytotoxic, single point] | 
37 | Cc1c(C(=O)Nc2ccc(N3C[C@@H](C)O[C@@H](C)C3)nc2)cccc1-c1ccc(OC(F)(F)F)cc1 | inconclusive: 282 nM [cytotoxic, full curve, poor fit] and inconclusive: 2.82 µM [cytotoxic, full curve, poor fit] | 
38 | CN1CCN(CCOc2cc(OC3CCOCC3)c3c(Nc4c(Cl)ccc5c4OCO5)ncnc3c2)CC1 | inconclusive: 28.2 µM [cytotoxic, partial curve, poor fit] | 
39 | COC1CC(=C(c2cccs2)c2cccs2)C[N+](C)(C)C1 (stereo unspecified) | inactive | 
40 | NC(CO)(CO)CCc1ccc(Sc2cccc(OCc3ccccc3)c2)cc1Cl | inconclusive: 39.8 µM [cytotoxic, single point] | 
41 | CC[C@H]1/C=C\C=C/C[C@@H](C)[C@H](O)[C@@](C)(O)C(=O)[C@@H](C)[C@H](O)[C@@H](C)C(=O)[C@@H](C)[C@H](O)[C@@H](C)/C=C\C(=O)O[C@@H]2[C@H](C)[C@H](CC1)O[C@]1(CC[C@H](C)[C@H](C[C@@H](C)O)O1)[C@H]2C | active: 20 µM | 
